PubChem BioAssay AID588855 (National Center for Advancing Translational Sciences (NCATS), 2011)
The campaign covered roughly 410,000 compounds. About 5,000 (1.2%) were called active. Inconclusive means that the source gave no clear call. Such entries were picked first, then a sample of the others. Calls follow the shape of the dose curve; as a rule, active = well fitted inhibition curve with a large enough effect; inconclusive = small, poorly fitted or top-dose-only effect; inactive = no such curve, though single readings can be large or run the other way. Potencies of inconclusive entries are doubtful fits and often do not repeat.

Assay: qHTS for Inhibitors of TGF-b; also: nearly all actives have a fitted effect of over 65% in size
Settings: HepG2 CAGA-GFP TGF-b/SMAD3 reporter, GFP fluorescence, 18 h, TGF-beta stimulated, 500 pg/mL final; series mostly up to 46.1 µM
How it was run: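 TGF-beta reporter screen: HEPG2 CAGA-GFP, 1% FBS, 500 pg/mL TGF-beta final, 18 h; per-cell GFP summed per well; curves fitted and categorized by class.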
Potency is read from the fitted curve at half-maximal effect; tags tell the direction and shape of the fitted curve.

Compound	Potency
CCCNC(=O)CN(C1CCCCC1)S(C)(=O)=O	inactive
NC(=O)COC(=O)/C=C/c1ccc2ccccc2n1	inconclusive: 7.94 µM [inhibitor, partial curve, poor fit]
CCCC(=O)NC(c1ccccc1Cl)c1ccc2cccnc2c1O (stereo unspecified)	inconclusive: 2 µM [inhibitor, full curve, poor fit]
Cc1ccc2nc(C3CCCCC3)c(Cc3cccc(Cl)c3)n2c1	inconclusive: 22.4 µM [inhibitor, single point]
COc1cc2c(c(OC)c1CC=C(C)C)C[C@H](c1ccc(O)cc1O)CO2	inconclusive: 22.4 µM [inhibitor, single point]
COC(=O)[C@@]1(Cc2ccccc2)[C@H]2C(=O)N(Cc3ccccc3)C(=O)[C@H]2[C@H]2CN=C(SCc3ccccc3)N21	inconclusive: 28.2 µM [inhibitor, partial curve, poor fit]
COc1cc2c(C(=O)N(C)c3cc(Cl)ccc3OC)cn(CC(C)C)c(=O)c2cc1OC	inconclusive: 8.91 µM [inhibitor, partial curve, poor fit]
FC(F)(F)c1cccc(NC(=S)N2CCN(c3ccccn3)CC2)c1	inconclusive: 25.1 µM [inhibitor, single point]
Cc1ccc(C(=O)NC(=S)NNC(=O)COc2ccc([N+](=O)[O-])cc2)cc1	inactive
O=C(c1ccc(Cl)cc1)N1CCN(c2cccc3[nH]ccc23)CC1	inactive
Cc1ccc(C(=O)N2CCCC(CCC(=O)N3CCN(c4ccccn4)CC3)C2)cc1C (stereo unspecified)	inconclusive: 22.4 µM [inhibitor, partial curve, poor fit]
C/C(=C\C(=O)c1ccccc1)NNC(=O)c1ccc(Cl)cc1	inconclusive: 35.5 µM [inhibitor, single point]
CC(C)NC(=O)NC(=O)CSc1nnc(COc2ccccc2F)n1C(C)C1CC2CCC1C2 (stereo unspecified)	inconclusive: 22.4 µM [inhibitor, single point]
COc1ccc(Cl)cc1NC(=O)N1CC(=O)Nc2sc3c(c2C1c1ccccc1)CCCC3 (stereo unspecified)	inconclusive: 10 µM [inhibitor, partial curve]
Cc1ccc2nc(C)c(C(=O)N/N=C/c3ccc(N4CCOCC4)cc3)cc2c1	inactive
COc1ccc2[nH]c3c(c2c1)CCN1C(=O)C(CC(=O)NCCN2CCOCC2)C[C@H](C(=O)N(C(C)C)C(C)C)[C@@]31C (stereo partly specified)	inconclusive: 31.6 µM [inhibitor, single point]
O=C(c1[nH]ncc1-c1cccc(Br)c1)C1CO1 (stereo unspecified)	inconclusive: 35.5 µM [inhibitor, single point]
COc1ccc(N=C2NC(=O)CS2)c([N+](=O)[O-])c1	inactive
O=C(NCc1cccnc1)C1CCCN(S(=O)(=O)c2cccc3nsnc23)C1 (stereo unspecified)	inconclusive: 1.26 µM [inhibitor, full curve, poor fit]
Cc1c(C(=O)NCc2ccc(C(F)(F)F)cc2)sc(=O)n1Cc1cccc(F)c1	inconclusive: 15.8 µM [inhibitor, single point]
CC(C)c1ccc(NC(=S)NN(c2ccccc2)c2ccccc2)cc1	inconclusive: 22.4 µM [inhibitor, single point]

Compound	Potency
Cc1nc2ccccc2nc1OCc1cccc(Cl)c1	active: 11.2 µM
CCOC(=O)C1CC2=C(CC(C)(C)CC2=O)N(CCOC)C1=O (stereo unspecified)	inactive
Cc1cc(C)c(CN2CCN(CCCn3ccc(NC(=O)OCc4ccccc4)nc3=O)CC2)c(C)c1	inconclusive: 35.5 µM [inhibitor, single point]
CCc1cc(C(=O)OC)c(NC(=O)CN2CCN(C(=O)c3ccco3)CC2)s1	inactive
CCC/C(C#Cc1cc(OC)cc(OC)c1)=C1/c2ccccc2C(=O)N1c1ccccc1	inconclusive: 0.112 µM [inhibitor, full curve, poor fit]
COc1ccc(NC(=O)C[C@H]2C(=O)N(Cc3ccccc3)C[C@@H]2CSC)cc1	inactive
Cc1ccc(C2(CCNC(C)c3cccs3)CCOC(C(C)C)C2)cc1 (stereo unspecified)	inconclusive: 15.8 µM [inhibitor, single point]
CC(C)C[C@@H](CN1CCC[C@@H]1CN1C(=S)NC[C@@H]1Cc1ccccc1)N1C[C@H](Cc2ccc(O)cc2)N(CC2CCCCC2)C1=S	inconclusive: 35.5 µM [inhibitor, single point]
CCOC(=O)c1nnc(-c2ccccc2)nc1Sc1c(Cl)cccc1Cl	active: 10 µM
O=C(Nc1ccc(O)c(-c2nc3ccccc3o2)c1)C1(c2ccc(Br)cc2)CCCC1	inconclusive: 0.631 µM [inhibitor, full curve, poor fit]
COC(=O)c1ccc(COc2ccc(/C=N/NC(N)=S)cc2)o1	inconclusive: 14.1 µM [inhibitor, partial curve, poor fit]
Cc1ccc(NC(=O)Cn2c(=O)c(CNc3ccccc3)cc3cc4c(cc32)OCCO4)cc1	inconclusive: 22.4 µM [inhibitor, single point]
CC(=O)Nc1ccc(S(=O)(=O)NNc2ccc([N+](=O)[O-])cc2)cc1	inactive
CCC(=O)Nc1ccccc1C(=O)OCC(=O)Nc1ccc(S(N)(=O)=O)cc1	inconclusive: 1.41 µM [inhibitor, partial curve, poor fit]
COc1ccc(-c2c(C)nn3c(Cl)c(C)c(C)nc23)cc1	inactive
CC(=O)NC(c1cc(Cl)c2cccnc2c1O)C(C)C (stereo unspecified)	active: 6.31 µM
COc1ccc(C=CC(C)=NNC(=O)c2ccncc2)cc1	inactive
Cc1cccc(C)c1NC(=O)CSCc1cnn(-c2ccccc2)c1-n1cccc1	inconclusive: 20 µM [inhibitor, partial curve, poor fit]
O=C1NC[C@@H](Cc2cccc3ccccc23)N(CC2(c3ccccc3)CC2)C1=O	inconclusive: 22.4 µM [inhibitor, single point]
COc1ccccc1Cn1c(CNS(=O)(=O)c2cccc([N+](=O)[O-])c2)nc2cccnc21	inconclusive: 11.2 µM [inhibitor, partial curve, poor fit]
